Experimental data taken from publication PMC7819943, “Rice protein-binding microarrays: a tool to detect cis-acting elements near promoter regions in rice”.
The other results are listed elsewhere or left out.

Target: T1, OsWOX13 (Oryza sativa, UniProt Q5QMM3 1-267)
T1 sequence: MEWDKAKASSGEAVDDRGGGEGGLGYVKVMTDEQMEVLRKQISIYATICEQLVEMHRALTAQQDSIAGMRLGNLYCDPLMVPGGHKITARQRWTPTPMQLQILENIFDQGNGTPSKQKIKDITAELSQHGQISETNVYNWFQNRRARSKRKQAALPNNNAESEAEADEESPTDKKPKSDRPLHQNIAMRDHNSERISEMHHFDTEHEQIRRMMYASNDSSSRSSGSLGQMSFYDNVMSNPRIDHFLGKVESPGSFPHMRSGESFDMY
Assay: protein-binding microarray (RPBM); PBS, 2% BSA, 51.3 ng/ul salmon testes DNA, 50 uM zinc acetate, 200 nM TF, 25 C, 1 h; high values mean tight binding
Details: protein: recombinant; tags: N-terminal polyhistidine and DsRed monomer fusion (pET32a); label: CyDye5-dUTP incorporated in the synthesized complementary strand; 3' TTTTT single-stranded linker to array surface; dsDNA, one strand shown
How it was run: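 A custom Agilent array was converted to double-stranded form by primer extension with Cy5-dUTP and blocked with 2% BSA. Protein at 200 nM in PBS with 2% BSA, salmon testes DNA and 50 µM zinc acetate was applied for 1 h at 25 °C, followed by washing. The proteins were polyhistidine–DsRed N-terminal fusions of transcription factors, expressed in E. coli BL21-CodonPlus and Ni–NTA-purified. The binding signal is per-feature fluorescence intensity (arbitrary units) from an Axon 4000B scanner.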

Point of comparison: “CGAAGAGTTAAACTGATAACCTTAATCAAGAAATCAACGACGGAGTCACCTAGTGCAG”, binding signal 4900 fluorescence intensity (a.u.). Against it:
- ACGGTAAAATCAATATTCTTGATTACACGGTGTCGTTGTCCGGAGTCACCTAGTGCAG — higher, 14600 fluorescence intensity (a.u.)
- TTAGACATGATGATCTTTTATTCATGCATCTGATAATCCTCGGAGTCACCTAGTGCAG — lower, 3950 fluorescence intensity (a.u.)
- TACCTAACAGAAAATTGAGTAATCTTTCTGTTGCTGGAGACGGAGTCACCTAGTGCAG — higher, 11700 fluorescence intensity (a.u.)
- TGTCTAATTTGAGGAGAAGAGACGACCGCTTCTTTTGGTGCGGAGTCACCTAGTGCAG — higher, 6190 fluorescence intensity (a.u.)
- GTCCAGTCAATTTGTCAAATTTTCTTCTGCTGGTCTTGATCGGAGTCACCTAGTGCAG — higher, 18700 fluorescence intensity (a.u.)
- TTTAATTTACAGTTAAATTAACTTAATCTGTAAAAGGGATCGGAGTCACCTAGTGCAG — higher, 57500 fluorescence intensity (a.u.)
- GTCTTGATTGCTTCAATTTTGCGTTACCTTACCATTTCTTCGGAGTCACCTAGTGCAG — higher, 41400 fluorescence intensity (a.u.)
- TTTCCATATTAATTTGATAAATAGAGAAGAATCTAAACTGCGGAGTCACCTAGTGCAG — higher, 7470 fluorescence intensity (a.u.)
- TGATTGTTGTGATTAACAAAGTTGTAATATCTTTTGGTTTCGGAGTCACCTAGTGCAG — higher, 8420 fluorescence intensity (a.u.)
- ATGATTTTCATCCGTTAGATTTGATGAATAAAGTATGAAGCGGAGTCACCTAGTGCAG — higher, 11100 fluorescence intensity (a.u.)
- GAGAAGGGGATTGAGGAGATTGGGAAGATACGCAAAACTACGGAGTCACCTAGTGCAG — higher, 6420 fluorescence intensity (a.u.)
- CCCTTAAATTGTCCAAGTTCATCACGCAAACAAGATGTGGCGGAGTCACCTAGTGCAG — higher, 9820 fluorescence intensity (a.u.)
- ATAAATAATAATTTATTTATTCAGCCATTGAGCTATCAGCCGGAGTCACCTAGTGCAG — higher, 23600 fluorescence intensity (a.u.)
- GTAGGATTGGATGGATATAGGAGCCTGCCTTGCCTTCCTCCGGAGTCACCTAGTGCAG — higher, 6030 fluorescence intensity (a.u.)
- AAGCAACAATTAATTTGGGACGGAGATAGTATATATGCTGCGGAGTCACCTAGTGCAG — higher, 10400 fluorescence intensity (a.u.)
- AATTAGTCAGATTTAGAATAATTTGACTTTGACAAAAGTCCGGAGTCACCTAGTGCAG — higher, 7020 fluorescence intensity (a.u.)
- ATGTAATTTCACCATAACTATATATTATAATAAGATAAGTCGGAGTCACCTAGTGCAG — higher, 8720 fluorescence intensity (a.u.)
- AAAATTTATAAACCTTGATTAATTTCAGAGTCAAACTGAACGGAGTCACCTAGTGCAG — higher, 13400 fluorescence intensity (a.u.)
- ACGAAATTGGCTCGATAAATTTGACATTGGAATATAGTGTCGGAGTCACCTAGTGCAG — higher, 22600 fluorescence intensity (a.u.)
- CTGATTTACATGGTAATGATCGCATACTTGAATCATCCAACGGAGTCACCTAGTGCAG — higher, 17900 fluorescence intensity (a.u.)
- ATGGTCCAATCAGGGAACAAGTGCTAGGACAAACACTGGTCGGAGTCACCTAGTGCAG — lower, 3350 fluorescence intensity (a.u.)
- ACAATGATGACTAGAGTTGATGATGCATGATGGAGAGATACGGAGTCACCTAGTGCAG — higher, 6020 fluorescence intensity (a.u.)
- GCACAATGATGACAACAGACAGTTTCCCACAGAAGATCCACGGAGTCACCTAGTGCAG — lower, 4550 fluorescence intensity (a.u.)
- AGTTGATGGCTGATTAGAGATACATTTAAAAGAATCGAATCGGAGTCACCTAGTGCAG — higher, 20600 fluorescence intensity (a.u.)
- AACATATTTCAATCTAACCACCTATCATCTTAATGACTTTCGGAGTCACCTAGTGCAG — lower, 4700 fluorescence intensity (a.u.)
- GTTTTAATTGTTTTACTGATTTGCAAATGAGTCTGGGATGCGGAGTCACCTAGTGCAG — higher, 63500 fluorescence intensity (a.u.)
- CCTCCTGGTAATCAGTTAGAATTAAAATCACGTGACTCTCCGGAGTCACCTAGTGCAG — higher, 5590 fluorescence intensity (a.u.)
- TCAATATCAATCAATCTCCGCCAACTCCCTCGAATCGCTCCGGAGTCACCTAGTGCAG — higher, 29600 fluorescence intensity (a.u.)
- ACATCGTTCCAATTTCAATCAAATTTCTAATTTTGGTATGCGGAGTCACCTAGTGCAG — higher, 13600 fluorescence intensity (a.u.)
- GATGTAATTAAATTACCGGCGTTAGCGTGGCCCGATCGATCGGAGTCACCTAGTGCAG — higher, 10400 fluorescence intensity (a.u.)
- ATGATTGGAGTCAAATTGAACTTGTACTGATGTGGAGGAGCGGAGTCACCTAGTGCAG — higher, 53400 fluorescence intensity (a.u.)
- TGGCCTTGATTTGCTTCCTGAATGTGCCTGCTTCCTTACACGGAGTCACCTAGTGCAG — higher, 18100 fluorescence intensity (a.u.)
- ACGTTATAATTCTATCACAATATATTGAGATACGTAGCTACGGAGTCACCTAGTGCAG — lower, 4520 fluorescence intensity (a.u.)
- TGTGTTAATTAATTTTAACTTTAGTTATATTCAGTGGCGACGGAGTCACCTAGTGCAG — higher, 47200 fluorescence intensity (a.u.)
- TGGATAGATTAATAGGGATAAACAAAATCTCCTTACTACCCGGAGTCACCTAGTGCAG — higher, 10600 fluorescence intensity (a.u.)
- TGGCTATTCATGGACTAATTAGGCTTAAAAGATTCGTCTCCGGAGTCACCTAGTGCAG — higher, 5430 fluorescence intensity (a.u.)
- TGGGATCAATTACTAGTGGTTTATATTTAAGTGGGGTCATCGGAGTCACCTAGTGCAG — higher, 7490 fluorescence intensity (a.u.)
- GTGATAATTAAAACCCAATCAATCATAAGTTAATACCACCCGGAGTCACCTAGTGCAG — higher, 50700 fluorescence intensity (a.u.)
- ATAAATTACCTTTAAATTTGCATGTGTTAAGCGATCATATCGGAGTCACCTAGTGCAG — higher, 27500 fluorescence intensity (a.u.)
- TGTTAATGAATCTAAATAGATATATATGTCTAAATTCATTCGGAGTCACCTAGTGCAG — lower, 4660 fluorescence intensity (a.u.)
- AGTCCCTGGATCCAATCACCACCTTAGGATTATTATAATCCGGAGTCACCTAGTGCAG — higher, 7270 fluorescence intensity (a.u.)
